Reference: ChEMBL document CHEMBL1201862, “PubChem BioAssay data set” (2004)
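Method: 48-hour compound exposure of cells in 96-well plates, five concentrations, linear interpolation of endpoints. Abbreviation: GI50, concentration required for 50% inhibition of growth.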 Calls of active or inactive are those of the source. Rule as the data show it: active = GI50 up to about 1.1 µM and inactive = higher.

System: NCI-H322M
Test: NCI tumour cell line growth inhibition, 48 h

Structure (SMILES)	GI50
O=C1/C(=C\c2ccccc2)c2ccccc2N1/N=C\c1ccccc1	inactive: 91.2 µM
Brc1ccc2c(-c3csc(-c4c[nH]c5ccc(Br)cc45)n3)c[nH]c2c1	inactive: 4.83 µM
Cc1cc(-c2nc3cc(O)ccc3s2)ccc1N	inactive: 29.1 µM
O=C(O)CCCCC1CCSS1 (stereo not drawn) [LIPOIC ACID, ALPHA]	inactive: > 100 µM
c1ccc(COC[C@H]2O[C@@H](c3ccccc3)C[C@@H](OCc3ccccc3)C2OCc2ccccc2)cc1 (stereo partly specified)	inactive: > 10 µM
Fc1ccccc1CN1COc2c(cc(Cl)c3cccnc23)C1	inactive: 2.11 µM
NNC(=O)c1cccc2c1Oc1ccccc1S2	inactive: > 100 µM
O=C(Cn1ccnc1[N+](=O)[O-])c1ccc(F)cc1	inactive: > 100 µM
c1ccc2[nH]c(-c3cscn3)nc2c1 [THIABENDAZOLE]	inactive: > 100 µM
O=C(c1ccncc1)C1C(=O)c2ccccc2C1C1(O)c2ccccc2CC1C(O)c1ccncc1 (stereo unspecified)	inactive: 43.7 µM
COc1ccc2c(-c3ccc(O)cc3)c(Oc3ccc(Cl)cc3)c(=O)oc2c1	inactive: 6.56 µM
CC(C)C(=O)NCC[C@@H](CNC(=O)OC(C)(C)C)NC(=O)OC(C)(C)C	inactive: > 100 µM
CC(=O)Oc1ccc2c3c1[C@H]1O[C@H]1c1cccc(c1-3)[C@@H]1O[C@H]21	inactive: 14.8 µM
CC12CC(OC(=O)[C@]1(C)O)[C@@H]([C@]1(O)CC[C@H]3[C@@H]4C[C@H]5O[C@]56[C@@H](O)C=CC(=O)[C@]6(C)[C@H]4CC[C@@]31C)C2 (stereo partly specified)	inactive: 15.7 µM
COc1ccc(-c2nc(N)c3ncn(C4OC(CO)C(O)C4O)c3n2)cc1 (stereo unspecified)	inactive: > 100 µM
COc1cc(OC)c(OC)cc1/C=C/c1ccccn1	inactive: > 10 µM
[O-][S+](c1ccc(Cl)cc1)c1ccccc1C1=NCCN1 (stereo unspecified)	inactive: > 100 µM
O=c1[nH]c(=O)n(C2OC(CO)C(O)C2O)cc1OCc1ccccc1 (stereo unspecified)	inactive: > 100 µM
CCOC(=N)/C(=C1\OC(=N)C(c2ccc(Cl)cc2)=C1O)c1ccc(Cl)cc1	inactive: 19.3 µM
CCOC(=O)c1nc2cc(C(F)(F)F)ccc2nc1Oc1ccc(C#N)cc1	inactive: 34.3 µM
NC1CCN(c2nc3ccccc3c3c2CCCC3)CC1	inactive: 4.07 µM
CCCN1CN(c2ccccc2)C2(CCN(CCCC(=O)c3ccc(F)cc3)CC2)C1=O	inactive: 3.84 µM

Structure (SMILES)	GI50
O=CNC(Cc1c[nH]cn1)C(=O)O (stereo unspecified)	inactive: > 100 µM
COC1CC(OC)C(O)C(CO)O1 (stereo unspecified)	inactive: > 100 µM
C=C1CC2(CC(c3ccccc3C)OC(c3ccccc3C)C2)OC1=O (stereo unspecified)	inactive: 15 µM
COc1ccc(NC(=O)CC(=O)n2nc(-c3ccccc3)c(/N=N/c3ccc(C)cc3)c2-c2ccccc2)cc1	inactive: 45.2 µM
Cc1ccc(/C=N/Nc2nncc3ccccc23)s1	inactive: 97.3 µM
CN(C)CCCN1C(=S)N(CCCN(C)C)c2c3ccccc3nc3c([N+](=O)[O-])ccc1c23	inactive: 6.55 µM
Cc1ccc(C2(O)CC(c3ccc([N+](=O)[O-])o3)=NN2C(=O)COc2ccccc2Cl)cc1 (stereo unspecified)	inactive: 13.6 µM
CCCCCCc1cc2cc(-c3cn4ccsc4n3)c(=O)oc2cc1O	inactive: > 100 µM
COC(=O)[C@@H]1CN(C(C)=O)C(=O)N1	inactive: > 100 µM
CC(C)C(NC(=O)C(Cc1ccccc1)NC(=O)[C@H]1CCC[C@H]1NC(=O)C(Cc1ccc(OC(C)(C)C)cc1)NC(=O)OC(C)(C)C)C(N)=O (stereo partly specified)	inactive: 38.2 µM
CS(=O)(=O)O[C@H]1CN2C[C@@H](O)[C@@H](O)[C@H]2[C@H]1CO.[B]	inactive: > 100 µM
COc1cc(C2SCC(=O)N2c2ccc(Oc3ccc(Cl)cc3)c(Cl)c2)cc(OC)c1OC (stereo unspecified)	inactive: 17.5 µM
CN1N=C(c2ccncc2)OC1c1ccc(Cl)c(Cl)c1 (stereo unspecified)	inactive: > 100 µM
COc1cnc2cc(C(=O)O)c3c([N+](=O)[O-])cccc3c2c1	inactive: > 100 µM
CCCCCCCSc1nc2c(C(=O)OCC)ncn2c2ccccc12	inactive: > 100 µM
Cc1ccc(Sc2ccccc2N)cc1	inactive: 81.8 µM
CC(C)(O)C1OCC(C2CCC3(C)C4=CCC5C(C)(C)C(O)CCC5(C)C4CCC23C)CC1O (stereo unspecified)	inactive: 14.6 µM
CC(C)/C=C1\CCC(CN(C)C)C1=O (stereo unspecified)	inactive: 17.6 µM
CC(C)c1ccccc1NC(=O)CCC(=O)NN	inactive: > 100 µM
O=C(NCCC1([N+](=O)[O-])CCN(C(=O)c2ccccc2)CC1)c1ccccc1	inactive: 84.7 µM
Nc1ncnc2c1ncn2CCCC(c1ccccc1)P(=O)(O)O (stereo unspecified)	inactive: > 100 µM
CC(C)(C)C1CCC(CI)(N=[N+]=[N-])CC1 (stereo unspecified)	inactive: > 100 µM

Structure (SMILES)	GI50
N#Cc1c(N)c2c(c(-c3ccccc3)c1-c1ccccc1)C(=O)N(Nc1ccccc1)C2=O	inactive: 3.79 µM
Cc1ccc(S(=O)OCC23CC4CC(CC(C4)C2)C3)cc1 (stereo unspecified)	inactive: > 100 µM
C=CC(CCc1ccc(C(=O)OCC)cc1)c1c(N)nc(N)[nH]c1=O (stereo unspecified)	inactive: 75.2 µM
C=C(CO)[C@H]1Oc2ccc(C(C)=O)cc2[C@@H]1O	inactive: > 100 µM
O=c1[nH]nc(Cc2ccccc2)n1CCCl	inactive: > 100 µM
FC(F)(F)C1(C(F)(F)F)C2CCC3(CC(F)(F)C(F)(F)S3)C1C2 (stereo unspecified)	inactive: > 100 µM
O=C1Nc2ccccc2/C1=N/NC(=O)C(O)(c1ccccc1)c1ccccc1	inactive: 19.9 µM
O=C1C(=O)N(c2ccc(Cl)cc2Cl)C(=O)C(=O)C1c1nc2ccccc2o1	inactive: > 100 µM
O=C1OC(CC(=O)c2ccc(Cl)cc2Cl)C(Cl)=C1Cl (stereo unspecified)	inactive: 47 µM
CC(c1cccc2ccccc12)/[N+]([O-])=C/c1ccccc1 (stereo unspecified)	inactive: > 100 µM
COC(=O)C(=O)C1(CCC(C)=O)c2ccccc2-c2ccccc21	inactive: > 100 µM
CCCCC(=O)Nc1ccc2cc(C(=O)OC)c(Cl)nc2n1	inactive: 4.72 µM
Oc1ccc(-c2n[nH]c(S)n2)cc1	inactive: > 100 µM
CC[C@H](C)[C@H](NC(=O)N(CCC#N)CCN(CCN(C(=O)N[C@@H](Cc1ccccc1)C(=O)OC)c1ccccc1)C(=O)N[C@H](C(=O)OC)C(C)C)C(=O)OC	inactive: 18.7 µM
Cc1ccc2c(O)cc(-c3ccsc3)nc2n1	inactive: 4.69 µM
COc1nc(C(=O)NNC(=O)c2nc(OC)c3ccccc3c2-c2ccccc2)c(-c2ccccc2)c2ccccc12	inactive: > 100 µM
O=C(/C=C/c1ccc(-c2ccccc2)cc1)NCc1ccc(C(=O)NCCc2ccccc2)cc1	inactive: > 100 µM
O=C(O)CSc1nnc(Cc2ccccc2)[nH]1	inactive: > 100 µM
COc1cccc2c1C(=O)c1c(O)c3c(c(O)c1C2=O)C[C@@](O)(C(C)=O)C[C@@H]3OC1OC(C)C(O)C(N)C1Br (stereo partly specified)	active: 0.231 µM
COC[C@@H](Cc1ccc(OC)c(OC)c1)[C@@H](COC)Cc1ccc(OC)c(OC)c1	inactive: > 100 µM
COc1ccc(NC(=O)CC(=O)N2N=C(C)C(/N=N/c3ccc(C(=O)O)cc3)C2=O)cc1 (stereo unspecified)	inactive: > 100 µM
COc1cc2c[n+](C)c3c4cc(OC)c(OC)cc4c(OCCCCCCCCOc4cc5c6cc(OC)c(OC)cc6c[n+](C)c5c5cc(OC)c(OC)cc45)cc3c2cc1OC	inactive: > 100 µM
